Test results from PubChem BioAssay AID588855 (National Center for Advancing Translational Sciences (NCATS), 2011).
“And” between values parts separate entries of the source, which are not always exact repeats. Identical values can stand only once. Screen size: about 410,000 compounds; about 5,000 (1.2%) were called active. The shares of active, inactive and inconclusive entries below differ from those in the screen. The call rests on the fitted dose curve; in most records, active means well fitted inhibition curve with a large enough effect; inconclusive means small, poorly fitted or top-dose-only effect; inactive means no such curve, though single readings can be large or run the other way. Potencies of inconclusive entries are doubtful fits and often do not repeat.

assay: qHTS for Inhibitors of TGF-b; details: HepG2 CAGA-GFP TGF-b/SMAD3 reporter, GFP fluorescence, 18 h, TGF-beta stimulated, 500 pg/mL final; series mostly up to 46.1 µM; further: nearly all actives have a fitted effect of over 65% in size
In short: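 First, reporter cells (HEPG2 CAGA-GFP) rested 2 h at 37 degrees C. Next, compounds were pinned in and TGF-beta added to 500 pg/mL final. After 18 h, GFP was imaged per cell and summed per well.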
Potency means the concentration at half of the fitted maximal effect; tags describe the fitted curve by direction and shape.

Q: For `COc1ccc(CC(=O)Nc2ccc(-c3nc4ccccc4s3)cc2Cl)cc1OC`, which Potency is on record?
A: Its Potency is inconclusive: 12.6 µM [inhibitor, single point].

Q: Which Potency does the source give for `COc1ccc(Nc2cc(C(=O)NCCCN(C)c3ccccc3)c3ccccc3n2)c(OC)c1` here?
A: The Potency was inconclusive: 3.55 µM [inhibitor, single point].

Q: Which Potency does the source give for `Cc1cnnn1-c1ccc(C(=O)CCl)cc1` here?
A: Its Potency is “inactive”.

Q: With `Cc1ccc(S(=O)(=O)Nc2ccc3c(c2)C(=O)N([C@H](C)CO)C[C@@H](C)[C@@H](CN(C)C(=O)Nc2cccc4ccccc24)O3)cc1` as the compound, how does the Potency read?
A: The Potency was active: 11.2 µM.

Q: Which Potency does the source give for `C[C@H](CO)N1C[C@H](C)[C@@H](CN(C)S(=O)(=O)c2cccs2)Oc2c(NC(=O)NC3CCCCC3)cccc2C1=O` here?
A: The Potency was inconclusive: 0.112 µM [inhibitor, full curve, poor fit].

Q: With `COc1cc(/C=C2/C(=O)NN(c3ccc(F)cc3)C2=O)cc([N+](=O)[O-])c1O` as the compound, how does the Potency read?
A: The Potency was inconclusive: 3.98 µM [inhibitor, single point].

Q: For `Cc1nnsc1C(=O)NNc1c(Cl)cccc1Cl`, which Potency is on record?
A: Its Potency is “inactive”.

Q: With `c1ccc(C2(CN3CCNC[C@H]3Cc3cccc4ccccc34)CC2)cc1` as the compound, how does the Potency read?
A: The Potency was inconclusive: 35.5 µM [inhibitor, single point].

Q: Which Potency does the source give for `Cc1nc2cc(-c3ccccc3)nn2c(C)c1CCC(=O)NCCc1ccccc1` here?
A: The Potency was inconclusive: 22.4 µM [inhibitor, single point].

Q: Which Potency does the source give for `FC(F)(F)c1cc(Oc2ccccc2)nc(-c2ccccn2)n1` here?
A: The Potency was “inactive”.

Q: Which Potency does the source give for `COc1cc(OC)c(CN2CCc3c([nH]c4ccccc34)C2)cc1Br` here?
A: The Potency was inconclusive: 35.5 µM [inhibitor, single point].

Q: For `CCc1ccc(N=CC23c4ccccc4C(c4ccccc42)C2C(=O)N(c4ccc(OC)cc4)C(=O)C23)cc1` (configuration not stated), which Potency is on record?
A: The Potency was inconclusive: 8.91 µM [inhibitor, partial curve, poor fit].

Q: For `CCC1CCCCN1S(=O)(=O)c1ccc(NC(=O)c2nc(SC)ncc2Cl)cc1` (configuration not stated), which Potency is on record?
A: Its Potency is inconclusive: 8.91 µM [inhibitor, partial curve].

Q: For `Nc1ccccc1C#CC(=O)c1ccccc1`, which Potency is on record?
A: Its Potency is active: 3.55 µM.

Q: For `CNc1snc(C)c1C(=O)OC(C)C(=O)Nc1cccc(C)c1` (configuration not stated), which Potency is on record?
A: Its Potency is inconclusive: 15.8 µM [inhibitor, single point].

Q: For `COc1cc(C(CCN2CCCCC2)c2c(OC)cc(OC)c3c(C)cc(=O)oc23)cc(OC)c1OC` (configuration not stated), which Potency is on record?
A: The Potency was “inactive”.

Q: For `O=C(CSc1nnnn1C1CC2CCC1C2)Nc1ccnc2ccccc12` (configuration not stated), which Potency is on record?
A: Its Potency is “inactive”.

Q: For `Cc1ccc(C(=O)N2c3ncnn3C3(CCCCC3)[C@@H]3CCCC[C@@H]32)cc1`, which Potency is on record?
A: Its Potency is inconclusive: 35.5 µM [inhibitor, partial curve, poor fit].

Q: With `Nc1ccccc1C(=O)NC(=O)Nc1ccc(Oc2ncc(Br)cn2)c(Cl)c1` as the compound, how does the Potency read?
A: Its Potency is inconclusive: 0.794 µM [inhibitor, full curve].

Q: For `Cc1cc(N/N=C/c2ccc(O)cc2O)nc(-n2nc(C)cc2C)n1`, which Potency is on record?
A: Its Potency is “inactive”.

Q: Which Potency does the source give for `CCN(CC(=O)Nc1ccc(OC)cc1)C(=O)c1oc2c(Cl)cccc2c1C` here?
A: The Potency was “inactive”.

Q: With `COc1ccc(C2NC(=S)N(c3ccccc3)C(C)=C2C(=O)Nc2ccccc2)cc1` (configuration not stated) as the compound, how does the Potency read?
A: Its Potency is “inactive”.

Q: Which Potency does the source give for `N#CC1(C#N)C(c2ccccc2)OC23CCCCC2C1(C#N)C(=N)O3` (configuration not stated) here?
A: The Potency was “inactive”.

Q: Which Potency does the source give for `Cc1c(Cl)cccc1-n1c(SCC(=O)NCc2ccccc2)nc2n[nH]c(C)c2c1=N` here?
A: Its Potency is active: 11.2 µM.

Q: For `COc1ccc(NC(=O)CC2C(=O)N(c3ccc(OC)cc3)C(=O)N2C2CCCCC2)cc1` (configuration not stated), which Potency is on record?
A: Its Potency is inconclusive: 35.5 µM [inhibitor, partial curve, poor fit].

Q: Which Potency does the source give for `CCOc1ccc(S(=O)(=O)N2CCC(C(=O)N3CCN(Cc4ccccc4)CC3)CC2)cc1` here?
A: Its Potency is inconclusive: 35.5 µM [inhibitor, single point].

Q: With `CC(=O)SC1CC(=O)C=C2CCC3C4CCC(=O)OC4(C)CCC3C21C` (configuration not stated) as the compound, how does the Potency read?
A: The Potency was “inactive”.

Q: Which Potency does the source give for `C[C@@H]1[C@H](c2ccccc2)OCCS(=O)(=O)N1Cc1cccc(C(F)(F)F)c1` here?
A: The Potency was inconclusive: 35.5 µM [inhibitor, single point].

Q: Which Potency does the source give for `COc1c(C)cc(Br)cc1C(=O)Nc1ccccc1C` here?
A: The Potency was “inactive”.

Q: For `CC(=O)/C=C(\C)Nc1ccccc1O`, which Potency is on record?
A: The Potency was “inactive”.

Q: For `CC(OC(=O)CNC(=O)C12CC3CC(CC(C3)C1)C2)C(=O)Nc1ccc(N2CCOCC2)cc1` (configuration not stated), which Potency is on record?
A: Its Potency is inconclusive: 14.1 µM [inhibitor, single point].

Q: With `CC(C)CC1Nc2ncnc(N3CCN(c4ccccn4)CC3)c2N(Cc2ccc(Cl)cc2)C1=O` (configuration not stated) as the compound, how does the Potency read?
A: The Potency was inconclusive: 22.4 µM [inhibitor, single point] and inconclusive: 5.01 µM [inhibitor, full curve, poor fit].

Q: Which Potency does the source give for `Cc1ccc(Cc2c(-c3ccco3)nc3ccc(Br)cn23)cc1` here?
A: The Potency was inconclusive: 17.8 µM [inhibitor, single point].

Q: With `Cc1cccc(Nc2c3c(nc4ccccc24)CCC3)c1` as the compound, how does the Potency read?
A: The Potency was inconclusive: 35.5 µM [inhibitor, single point].

Q: For `COc1cc(C(=O)NCC2CCCO2)ccc1OCc1ccc(Cl)cc1Cl` (configuration not stated), which Potency is on record?
A: The Potency was “inactive”.

Q: Which Potency does the source give for `CN(C)CCCNCCCNC(=O)/C(=N\O)c1ccccn1` here?
A: Its Potency is “inactive”.

Q: With `c1coc(-c2nc3cc4ccccc4cc3nc2-c2ccco2)c1` as the compound, how does the Potency read?
A: Its Potency is inconclusive: 15.8 µM [inhibitor, single point].

Q: Which Potency does the source give for `COc1ccc(-n2nnnc2C(c2cccc3ccccc23)N2CCN(C/C=C/c3ccccc3)CC2)cc1` (configuration not stated) here?
A: The Potency was inconclusive: 8.91 µM [inhibitor, partial curve, poor fit].

Q: Which Potency does the source give for `Cc1ccccc1NS(=O)(=O)c1cccc(-c2nnc(-c3ccccc3)o2)c1` here?
A: Its Potency is inconclusive: 20 µM [inhibitor, single point].

Q: With `Cc1cc(C)c(/C=C/c2onc(C)c2S(=O)(=O)N2CCC(C(=O)NCC(C)c3ccccc3)CC2)c(C)c1` (configuration not stated) as the compound, how does the Potency read?
A: The Potency was inconclusive: 2.82 µM [inhibitor, full curve, poor fit].

Q: For `N#CCC(=O)Nc1ccc(C(=O)OC(C(=O)Nc2cc(C(F)(F)F)ccc2Cl)c2ccccc2)cc1` (configuration not stated), which Potency is on record?
A: The Potency was inconclusive: 35.5 µM [inhibitor, single point].

Q: For `CC(C)[N+](C)(CCOC(=O)C1c2ccccc2Oc2ccccc21)C(C)C`, which Potency is on record?
A: Its Potency is “inactive”.

Q: For `O=C(CSc1cccc[n+]1[O-])c1cc2ccccc2o1`, which Potency is on record?
A: The Potency was inconclusive: 20 µM [inhibitor, single point].

Q: With `CCOC(=O)C1C(=O)C=C(c2ccc(Br)cc2)CC1c1ccco1` (configuration not stated) as the compound, how does the Potency read?
A: Its Potency is “inactive”.

Q: With `Cn1c(C(=O)N2CCCC(C(=O)NCCCSC3CCCCC3)C2)cc2sccc21` (configuration not stated) as the compound, how does the Potency read?
A: Its Potency is active: 12.6 µM.

Q: Which Potency does the source give for `Cc1ccc(NC(=O)c2c(C)oc3ccc(O)c(CN4CCCCC4)c23)cc1` here?
A: The Potency was “inactive”.

Q: With `O=S(=O)(c1ccc(Cl)c(NC(=S)N/N=C/c2ccc(O)cc2)c1)N1CCOCC1` as the compound, how does the Potency read?
A: The Potency was inconclusive: 28.2 µM [inhibitor, single point].

Q: For `COc1c(S(=O)(=O)N2CCN(C(=O)c3ccco3)CC2)ccc(Cl)c1Cl`, which Potency is on record?
A: The Potency was “inactive”.

Q: Which Potency does the source give for `COc1ccc(CCC(=O)N2CCN(S(=O)(=O)c3ccc(C)cc3)CC2)cc1` here?
A: Its Potency is “inactive”.

Q: With `O=C(CN1C2=NCCCN2c2ccccc21)c1ccc(Cl)cc1Cl` as the compound, how does the Potency read?
A: The Potency was inconclusive: 35.5 µM [inhibitor, single point].

Q: Which Potency does the source give for `COc1ccc(-n2c(SCC(=O)Nc3cc(C)cc(C)c3)nc3c(oc4ccccc43)c2=O)cc1` here?
A: The Potency was inconclusive: 0.112 µM [inhibitor, full curve, poor fit].

Q: With `O=C(COC(=O)/C=C/c1cccc(C(F)(F)F)c1)NCc1ccccc1` as the compound, how does the Potency read?
A: The Potency was inconclusive: 1.12 µM [inhibitor, full curve, poor fit].

Q: With `OCCNc1ncnc2c1c(-c1ccccc1)c(-c1ccccc1)n2Cc1ccco1` as the compound, how does the Potency read?
A: Its Potency is “inactive”.

Q: For `COc1ccccc1N1CCN(C(=O)c2nc(-c3ccc(C)cc3)n3c2CCCCC3)CC1`, which Potency is on record?
A: The Potency was inconclusive: 0.631 µM [inhibitor, full curve, poor fit].

Q: For `CN1C(C(=O)NCC2CC2)CC2Cn3c(nc4cc(Cl)c(Cl)cc43)C21` (configuration not stated), which Potency is on record?
A: Its Potency is “inactive”.

Q: With `Cc1ccccc1C(=O)Nc1nc(SCc2ccc(Cl)cc2)n[nH]1` as the compound, how does the Potency read?
A: The Potency was inconclusive: 31.6 µM [inhibitor, single point].

Q: With `O=C(Cn1nnc(-c2ccccc2)n1)N1CCN(c2ccc(F)cc2)CC1` as the compound, how does the Potency read?
A: The Potency was inconclusive: 8.91 µM [inhibitor, partial curve, poor fit].

Q: For `COc1ccc(-c2cncnc2N)cc1OC`, which Potency is on record?
A: The Potency was “inactive”.

Q: For `C=CCC[C@H](Cc1ccc(F)cc1)C(=O)OC[C@H](Cc1c[nH]c2ccccc12)NC(=O)[C@@H](CC=C)CC(=O)NCCO`, which Potency is on record?
A: Its Potency is inconclusive: 12.6 µM [inhibitor, partial curve, poor fit].

Q: For `CC1CCN(C(=O)c2ccccc2NC(=O)c2nsc3ccccc23)CC1`, which Potency is on record?
A: Its Potency is inconclusive: 35.5 µM [inhibitor, single point].

Q: With `CCS(=O)(=O)c1nc2ccccc2n1CC(=O)N1CCOCC1` as the compound, how does the Potency read?
A: The Potency was inconclusive: 35.5 µM [inhibitor, single point].

Q: For `O=C1[C@H](Cc2ccccc2)NCC=CC[C@H](c2ccc(Cl)cc2)N1Cc1ccc(Cl)cc1`, which Potency is on record?
A: The Potency was inconclusive: 35.5 µM [inhibitor, single point].

Q: For `CC(C)C[C@H](NC(=O)c1[nH]cnc1C(=O)Nc1ccccc1F)C(=O)OC(C)(C)C`, which Potency is on record?
A: The Potency was inconclusive: 35.5 µM [inhibitor, single point].

Q: With `O=C(NCc1ccc(F)cc1)N1CCN(S(=O)(=O)c2ccccc2F)CC1` as the compound, how does the Potency read?
A: Its Potency is inconclusive: 25.1 µM [inhibitor, partial curve, poor fit].

Q: With `Cc1c(C(=O)O)sc2nc(-c3cccs3)cc(C(F)(F)F)c12` as the compound, how does the Potency read?
A: The Potency was “inactive”.

Q: Which Potency does the source give for `O=C(NCc1cccnc1)c1cc(C2CCCN(C(=O)c3cccc(O)c3)C2)on1` (configuration not stated) here?
A: The Potency was “inactive”.

Q: For `CCOc1ccccc1OCCCC(=O)NC1CCCc2ccccc21` (configuration not stated), which Potency is on record?
A: The Potency was inconclusive: 35.5 µM [inhibitor, single point].
